{"source": "PubChem BioAssay AID1347165", "about": "(National Center for Advancing Translational Sciences (NCATS), 2019)", "note": "Among all 220,000 compounds or so, about 5,700 (2.6%) were called active. The shares of active, inactive and inconclusive entries below differ from those in the screen. Calls come from the whole dose curve; as a rule, active = well fitted inhibition curve with a large enough effect; inconclusive = small, poorly fitted or top-dose-only effect; inactive = no such curve, though single readings can be large or run the other way. Potencies beside an inconclusive call are fits to weak or partial responses and may not hold up. Potency is the fitted concentration of half-maximal effect; tags give direction and shape of the fitted curve.", "data": [{"biological_target": "Lysine-specific demethylase 5B (Homo sapiens) (UniProt Q9UGL1)", "sequence (Q9UGL1 whole entry, looked up)": "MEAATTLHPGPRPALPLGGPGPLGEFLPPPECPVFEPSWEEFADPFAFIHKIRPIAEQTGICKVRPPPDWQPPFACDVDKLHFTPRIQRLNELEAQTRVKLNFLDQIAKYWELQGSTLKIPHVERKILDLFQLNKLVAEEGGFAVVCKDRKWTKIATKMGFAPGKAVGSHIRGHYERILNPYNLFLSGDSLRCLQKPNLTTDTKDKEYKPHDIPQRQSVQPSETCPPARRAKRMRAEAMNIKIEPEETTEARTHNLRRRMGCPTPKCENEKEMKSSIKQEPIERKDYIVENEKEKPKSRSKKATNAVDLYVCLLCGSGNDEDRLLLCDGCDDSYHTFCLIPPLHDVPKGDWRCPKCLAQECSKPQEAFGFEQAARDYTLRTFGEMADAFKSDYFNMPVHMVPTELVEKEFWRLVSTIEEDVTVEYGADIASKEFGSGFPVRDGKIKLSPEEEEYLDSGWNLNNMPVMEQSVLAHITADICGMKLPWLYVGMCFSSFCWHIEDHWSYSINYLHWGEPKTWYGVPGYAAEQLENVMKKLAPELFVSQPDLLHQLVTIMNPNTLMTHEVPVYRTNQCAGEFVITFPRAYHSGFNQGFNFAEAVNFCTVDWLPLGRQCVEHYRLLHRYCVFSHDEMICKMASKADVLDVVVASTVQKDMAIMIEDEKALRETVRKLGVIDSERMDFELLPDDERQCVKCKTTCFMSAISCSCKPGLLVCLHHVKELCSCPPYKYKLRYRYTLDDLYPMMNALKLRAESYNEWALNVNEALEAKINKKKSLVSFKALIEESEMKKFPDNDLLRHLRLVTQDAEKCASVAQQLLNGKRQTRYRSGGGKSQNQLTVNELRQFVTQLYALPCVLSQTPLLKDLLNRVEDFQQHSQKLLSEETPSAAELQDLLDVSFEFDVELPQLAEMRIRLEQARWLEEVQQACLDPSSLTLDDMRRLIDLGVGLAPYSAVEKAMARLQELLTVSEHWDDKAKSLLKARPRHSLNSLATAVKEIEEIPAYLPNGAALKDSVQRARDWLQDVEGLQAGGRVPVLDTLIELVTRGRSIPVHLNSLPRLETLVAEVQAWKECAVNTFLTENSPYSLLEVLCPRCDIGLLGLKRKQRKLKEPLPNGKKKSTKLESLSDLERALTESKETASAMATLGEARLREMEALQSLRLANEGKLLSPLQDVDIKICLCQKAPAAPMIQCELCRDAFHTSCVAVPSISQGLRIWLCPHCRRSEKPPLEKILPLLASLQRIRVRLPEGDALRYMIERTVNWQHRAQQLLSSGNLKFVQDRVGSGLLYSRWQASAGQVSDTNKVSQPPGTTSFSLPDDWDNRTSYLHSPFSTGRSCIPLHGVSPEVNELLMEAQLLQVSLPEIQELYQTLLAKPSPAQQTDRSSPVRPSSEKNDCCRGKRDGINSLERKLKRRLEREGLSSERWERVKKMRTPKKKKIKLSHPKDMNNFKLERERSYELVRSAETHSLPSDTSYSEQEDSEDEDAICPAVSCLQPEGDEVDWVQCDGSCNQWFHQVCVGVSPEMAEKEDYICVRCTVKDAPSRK", "experiment": "Primary screen for KDM5B Histone Demethylases FDH-coupled qHTS; note: nearly all actives have a fitted effect of over 70% in size; for activity change, negative = inhibition: 0% is about no effect", "details": "FDH-coupled NADH fluorescence (FDH is formaldehyde dehydrogenase); activity change, negative = inhibition: at 57.7 µM (top of the series) unless noted", "method_in_brief": "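Inhibition is measured as reduced NADH fluorescence generation from FDH coupling to formaldehyde release. Truncated KDM5BΔAP at 200 nM final acts on H3K4me3 peptide (12.5 µM in substrate mix) in pH 7.5 HEPES buffer with Tween-20, 30 min, room temperature.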", "values": [{"smiles": "O=c1oc2cc(O)ccc2cc1-c1nc(-c2ccc(Cl)cc2)cs1", "Potency": "inconclusive: 17.8 µM [inhibitor, single point]"}, {"smiles": "Cc1cc(Br)cc(C)c1OCC(=O)Nc1ccc(S(=O)(=O)Nc2ncccn2)cc1", "Potency": "inconclusive: 4.47 µM [inhibitor, partial curve, poor fit]"}, {"smiles": "NCCSCc1ccco1", "activity change, negative = inhibition": "inactive: -10.9%"}, {"smiles": "COC(=O)[C@@H]1Cc2c([nH]c3ccccc23)[C@H]2C[C@@H](NC[C@H]3CCCO3)C[C@@H](c3ccccc3F)N21", "Potency": "inconclusive: 15.8 µM [inhibitor, partial curve, poor fit]"}, {"smiles": "COC(=O)C1=CN(Cc2ccccc2)C=C(C(=O)OC)C1c1cc(F)ccc1F", "Potency": "inconclusive: 20 µM [inhibitor, partial curve, poor fit]"}, {"smiles": "O=C(COc1ccc(F)cc1)NCc1ccc2c(c1)CCN2C(=O)c1ccc(F)cc1", "activity change, negative = inhibition": "inconclusive: -33.4% [inhibitor]"}, {"smiles": "Oc1c(C(c2cccc(Cl)c2)N2CCOCC2)sc2nc(-c3ccco3)nn12", "note": "(centres undefined)", "Potency": "inconclusive: 17.8 µM [inhibitor, partial curve, poor fit]"}, {"smiles": "CCCC(=O)N1N=C(c2cccc(NS(=O)(=O)CC)c2)CC1c1ccco1", "note": "(centres undefined)", "activity change, negative = inhibition": "inactive: -23.8%"}, {"smiles": "OCCCC1CCCN1", "note": "(centres undefined)", "activity change, negative = inhibition": "inactive: -9.11%"}, {"smiles": "O=C1Nc2ccc(Br)cc2/C1=C/C(=O)c1ccc2c(c1)OCO2", "Potency": "inconclusive: 7.94 µM [inhibitor, full curve, poor fit]"}, {"smiles": "CN(C)C(=O)c1ccnc(-c2nnc3ccc(N(C)Cc4ccccc4)nn23)c1", "activity change, negative = inhibition": "inactive: -46.5% [at 86.2 µM]"}, {"smiles": "COc1ccc2c(c1)c(C(=O)O)c(C)n2-c1ccccc1", "Potency": "inconclusive: 25.1 µM [inhibitor, partial curve, poor fit]"}, {"smiles": "Cc1cc(/C=C(\\C#N)c2ccc(F)cc2)c(C)n1C", "Potency": "inconclusive: 39.8 µM [inhibitor, single point]"}, {"smiles": "O=C(Cn1nc2c(cc1=O)CCCC2)NC1CCCc2c1[nH]c1ccccc21", "note": "(centres undefined)", "Potency": "inconclusive: 17.8 µM [inhibitor, single point]"}, {"smiles": "CCC(CC)C(=O)NC1CCN(c2cnn(CC)c(=O)c2)CC1", "activity change, negative = inhibition": "inactive: 0.44%"}, {"smiles": "O=C(CSc1nc2c([nH]c3ccccc32)c(=O)n1-c1ccc(F)cc1)Nc1ccc2c(c1)OCO2", "Potency": "inconclusive: 31.6 µM [inhibitor, single point]"}, {"smiles": "COc1ccc(CN(C(=O)c2snc(C(N)=O)c2N)C(C)C(=O)NCc2ccc(F)cc2)cc1", "note": "(centres undefined)", "Potency": "inconclusive: 14.1 µM [inhibitor, partial curve, poor fit]"}, {"smiles": "Cc1noc(C)c1CN1CCc2nc(C(=O)NCc3ccccc3)oc2CC1", "activity change, negative = inhibition": "inactive: -41.3% [at 86.2 µM]"}, {"smiles": "O=C(c1ccccc1)N1CCC2(C1)C(=O)N(c1ccccc1)c1ccccc12", "note": "(centres undefined)", "activity change, negative = inhibition": "inactive: 32.5% [at 115 µM]"}]}]}
